According to publication PMC4336329 (PLoS ONE, 2015):
Hit rate of the full screen: of about 310,000 compounds, about 14,000 (4.5%) showed an effect of 50% or more. Effects have a minus sign here. The list shows a part of the results.

The compounds below were run against human ether-à-go-go-related gene (hERG) potassium channel (human, UniProt Q12809) (assay: primary screen, population patch clamp on CHO cells stably expressing hERG).
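Note: peak tail current of the secondary pulse compared with the same well before compound.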

Sequence of human ether-à-go-go-related gene (hERG) potassium channel (Q12809 whole entry, looked up): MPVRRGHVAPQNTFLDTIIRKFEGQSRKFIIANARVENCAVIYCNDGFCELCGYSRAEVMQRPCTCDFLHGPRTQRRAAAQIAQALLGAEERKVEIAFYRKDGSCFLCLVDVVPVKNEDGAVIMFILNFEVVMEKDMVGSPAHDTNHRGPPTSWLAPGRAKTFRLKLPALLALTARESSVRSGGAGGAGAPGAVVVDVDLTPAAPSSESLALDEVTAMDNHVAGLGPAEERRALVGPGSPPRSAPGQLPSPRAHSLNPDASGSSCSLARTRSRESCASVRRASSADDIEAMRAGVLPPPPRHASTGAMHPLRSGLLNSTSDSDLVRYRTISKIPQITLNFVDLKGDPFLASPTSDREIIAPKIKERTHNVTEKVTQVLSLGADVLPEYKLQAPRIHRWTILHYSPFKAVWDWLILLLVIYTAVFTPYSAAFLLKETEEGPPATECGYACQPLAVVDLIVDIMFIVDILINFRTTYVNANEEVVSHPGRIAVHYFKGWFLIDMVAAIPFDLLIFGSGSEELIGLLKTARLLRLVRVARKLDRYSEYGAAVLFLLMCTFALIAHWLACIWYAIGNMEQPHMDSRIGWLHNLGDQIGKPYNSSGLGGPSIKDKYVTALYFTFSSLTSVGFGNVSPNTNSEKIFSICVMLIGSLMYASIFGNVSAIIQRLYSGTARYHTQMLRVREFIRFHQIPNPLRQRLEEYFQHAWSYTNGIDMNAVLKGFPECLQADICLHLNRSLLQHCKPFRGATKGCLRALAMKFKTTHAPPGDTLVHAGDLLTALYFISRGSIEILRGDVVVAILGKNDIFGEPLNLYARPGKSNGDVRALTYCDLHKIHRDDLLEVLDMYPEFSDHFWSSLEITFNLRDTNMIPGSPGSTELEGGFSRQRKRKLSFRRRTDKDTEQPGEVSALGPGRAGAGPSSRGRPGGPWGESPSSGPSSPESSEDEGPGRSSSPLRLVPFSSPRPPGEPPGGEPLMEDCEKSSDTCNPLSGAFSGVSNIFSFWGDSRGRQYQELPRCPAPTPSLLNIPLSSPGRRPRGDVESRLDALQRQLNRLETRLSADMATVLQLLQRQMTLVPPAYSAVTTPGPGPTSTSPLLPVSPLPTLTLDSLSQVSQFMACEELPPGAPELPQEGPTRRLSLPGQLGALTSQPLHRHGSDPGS

SMILES | hERG current change (%, negative = inhibition) at 10uM [%]
CC(NCCOc1ccccc1F)C(=O)Nc1ccc(S(N)(=O)=O)cc1 (stereo not drawn) | 13.4
CCOc1ccccc1NC(=O)CSc1nnc2ccc(-c3cccnc3)nn12 | -25.8
CN(C)/C=C/c1onc(-c2ccccc2Cl)c1C#N | -32.6
CNc1ccccc1C(C)(C)c1cc(C)[nH]n1 | 22.6
CCOc1ccc(NC(=S)Nc2ccc(Br)cc2Cl)cc1 | 32.6
O=C(NC1CCCCCC1)c1c(O)c2ccccc2[nH]c1=O | 8.34
CCN1C(=O)S/C(=C/c2ccc(Oc3ccc([N+](=O)[O-])cn3)c(OC)c2)C1=O | 9.24
CC1(C2CC2)NC(=O)N(CC(=O)Nc2ccc(F)cc2F)C1=O (stereo not drawn) | -2.98
Cc1ccc(Nc2nnc(SC(C)C(=O)NC3CC3)s2)cc1 (stereo not drawn) | -14
COC(/C(=N/O)c1ccc(Cl)cc1)c1ccccc1 (stereo not drawn) | 3
Cc1ccc(S(=O)(=O)NNC(=O)c2cccs2)c(C)c1 | 14.4
Cc1cc(C)nc(NC(=O)/C=C/c2ccc3c(c2)OCO3)c1 | 7.47
S=C(NCc1cccc(Cl)c1)NC1CCCCC1 | 0.759
CN1CCN(c2ccccc2NC(=O)COc2ccccc2)CC1 | -48.4
O=C(Nc1nc(-c2cc(Cl)sc2Cl)cs1)c1ccccc1 | 16.3
O=c1[nH]c(-c2ccncc2)nc2ccccc12 | 1.99
O=C(O)CCn1[nH]c(=O)c2ccccc2c1=O | 11.8
c1ccc(-n2ncc3c(NCc4cccs4)ncnc32)cc1 | 11.8
O=C(NCCCN1CCCC1=O)c1ccccc1NS(=O)(=O)c1ccc(Br)cc1 | 1.59

SMILES | hERG current change (%, negative = inhibition) at 10uM [%]
Cc1ccccc1CN1CCN(CC2CC3C=CC2C3)CC1 (stereo not drawn) | 1.36
O=C1c2ccccc2C(Nc2ccc(S(=O)(=O)N3CCCCC3)cc2)N1Cc1ccco1 (stereo not drawn) | -22.7
C=C1SC(=Nc2ccccc2Cl)N(C(=O)c2sc3ccccc3c2Cl)C1(C)C | -8.75
COc1ccc(/C=C(\NC(=O)c2ccc(C)cc2)C(=O)N2CCCCC2)cc1 | -55.2
Cc1ccc(N2CCN(c3ncccc3[N+](=O)[O-])CC2)c(C)c1 | 22.4
Cc1ccc(S(=O)(=O)N2CCC(C(=O)OCC(=O)NCCc3ccccc3)CC2)cc1C | -8.07
COc1ccccc1NC(=S)N(CCc1ccc(OC)c(OC)c1)Cc1ccccn1 | -49.6
CCC(=O)N1CCN(c2ccc(NC(=S)NC(=O)C(C)C)cc2)CC1 | -2.67
CCC(C)(C)n1nnnc1C(c1cc2cc(OC)c(OC)cc2[nH]c1=O)N1CCc2ccccc21 (stereo not drawn) | -4.37
O=C(CSc1nnc2sc3ccccc3n12)NCc1ccc2c(c1)OCO2 | -24.9
CCOC(=O)N1CCC(NC(=O)CCc2nc(-c3ccc(C)cc3)no2)CC1 | -6.4
N#Cc1cc2cc3c(cc2nc1SCC(=O)N1CCCC1)OCCO3 | 3.99
Cc1ccc(-n2ncc3c(=O)n(CC(N)=O)cnc32)cc1C | 22.2
Cc1ccc(/C(N)=N/OC(=O)c2cccc(F)c2)cc1 | 1.95
COc1ccc(C(=O)NNC(=S)NC(=O)c2cccc([N+](=O)[O-])c2)cc1 | 17.9
O=C(Cn1c(SCC(=O)N2CCCc3ccccc32)nc2ccccc21)N1CCCC1 | -13.2
COc1cccc(Cn2nnc(C(=O)Nc3cc(Cl)ccc3OC)c2N)c1 | 13.3
CCOc1ccc2nc(SCC(=O)NCc3ccco3)sc2c1 | -29.8
COc1ccccc1-c1nc(C(N)=O)c2[nH]c(=O)n(-c3cccc(C)c3)c2n1 | -20.9

SMILES | hERG current change (%, negative = inhibition) at 10uM [%]
COc1ccc(S(=O)(=O)Nc2ccccc2C(=O)NC(C)C)cc1OC | 13.3
CCOc1ccc2c(CC)cc(=O)oc2c1OCC | -18.9
Cc1cc(C(=O)OCC(=O)c2ccc3c(c2)NC(=O)CO3)c2ccccc2n1 | 18.8
O=C(CCC(=O)c1ccc(F)cc1)Nc1ccccc1Cl | 1.71
CN(C)S(=O)(=O)N1CCC(Oc2ccc(C(=O)N3CCCCCCC3)cc2)CC1 | 10.9
COc1cc(OC)c(-n2c(C)cc(C=O)c2C)cc1Cl | -15.4
CC(C)Cn1c2nc3ccccc3nc2c2c(=O)n(CCN3CCOCC3)cnc21 | -48.1
CCCCNC(=O)CSc1nc2ccsc2c(=O)n1CCCC(=O)NCCc1ccc(S(N)(=O)=O)cc1 | 22.2
CCOC(=O)N1CCN(C(=O)CN(c2ccc(OC)cc2)S(C)(=O)=O)CC1 | -0.984
O=C(CN1C(=O)c2ccccc2C1=O)NC1CCCCC1 | 10.5
COC(=O)c1sccc1NC(=S)N1CCN(c2ccc(F)cc2)CC1 | -8.43
O=C(c1ccc(NS(=O)(=O)c2cccs2)cc1)N1CCOCC1 | 14.4
CC1=C(C(=O)NCc2ccccc2)C(c2cccs2)NC(=S)N1 (stereo not drawn) | -23.7
COCCn1c(N)c(C(=O)OCc2ccccc2)c2nc3ccccc3nc21 | -38.3
Cc1ccc(C)c2nc3sc(C(=O)N4CCCc5ccccc54)c(N)c3cc12 | -0.132
CCCCc1ccc(NC(=O)NCc2ccccn2)cc1 | -1.75
Cc1ccc2c(CN3CCN(S(=O)(=O)c4ccccc4C(F)(F)F)CC3)cc(=O)oc2c1 | -57.3
O=C(NC1CCN(CCc2c[nH]c3ccccc23)CC1)c1ccccc1 | -71.7
O=c1cc(CNC2CCCCC2)c2ccccc2[nH]1 | 10.3
